According to patent publication US20250011379A1 (VERTEX PHARMACEUTICALS, published 2025):
Values belong to the binder of their own block, whether it stands above or below them.

Molecular target: T1, human C4b (human, UniProt P0C0L5 20-1744)
T1 chain 1: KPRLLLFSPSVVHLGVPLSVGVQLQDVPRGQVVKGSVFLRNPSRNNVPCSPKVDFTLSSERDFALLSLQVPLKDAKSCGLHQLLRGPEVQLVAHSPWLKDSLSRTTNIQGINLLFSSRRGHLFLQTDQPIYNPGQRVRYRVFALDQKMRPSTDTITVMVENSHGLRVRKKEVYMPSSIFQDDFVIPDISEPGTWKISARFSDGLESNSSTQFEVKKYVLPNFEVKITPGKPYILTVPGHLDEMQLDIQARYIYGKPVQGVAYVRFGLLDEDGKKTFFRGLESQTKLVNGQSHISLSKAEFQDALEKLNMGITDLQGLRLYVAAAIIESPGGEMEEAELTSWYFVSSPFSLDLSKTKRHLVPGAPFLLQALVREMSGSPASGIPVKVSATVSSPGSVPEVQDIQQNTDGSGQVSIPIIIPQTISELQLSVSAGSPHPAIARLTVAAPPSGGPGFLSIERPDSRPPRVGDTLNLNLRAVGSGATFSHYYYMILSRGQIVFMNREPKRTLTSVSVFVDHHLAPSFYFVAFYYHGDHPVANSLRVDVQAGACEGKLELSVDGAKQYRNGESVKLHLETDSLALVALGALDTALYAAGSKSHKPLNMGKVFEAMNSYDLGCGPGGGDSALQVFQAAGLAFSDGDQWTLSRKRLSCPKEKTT
T1 chain 2: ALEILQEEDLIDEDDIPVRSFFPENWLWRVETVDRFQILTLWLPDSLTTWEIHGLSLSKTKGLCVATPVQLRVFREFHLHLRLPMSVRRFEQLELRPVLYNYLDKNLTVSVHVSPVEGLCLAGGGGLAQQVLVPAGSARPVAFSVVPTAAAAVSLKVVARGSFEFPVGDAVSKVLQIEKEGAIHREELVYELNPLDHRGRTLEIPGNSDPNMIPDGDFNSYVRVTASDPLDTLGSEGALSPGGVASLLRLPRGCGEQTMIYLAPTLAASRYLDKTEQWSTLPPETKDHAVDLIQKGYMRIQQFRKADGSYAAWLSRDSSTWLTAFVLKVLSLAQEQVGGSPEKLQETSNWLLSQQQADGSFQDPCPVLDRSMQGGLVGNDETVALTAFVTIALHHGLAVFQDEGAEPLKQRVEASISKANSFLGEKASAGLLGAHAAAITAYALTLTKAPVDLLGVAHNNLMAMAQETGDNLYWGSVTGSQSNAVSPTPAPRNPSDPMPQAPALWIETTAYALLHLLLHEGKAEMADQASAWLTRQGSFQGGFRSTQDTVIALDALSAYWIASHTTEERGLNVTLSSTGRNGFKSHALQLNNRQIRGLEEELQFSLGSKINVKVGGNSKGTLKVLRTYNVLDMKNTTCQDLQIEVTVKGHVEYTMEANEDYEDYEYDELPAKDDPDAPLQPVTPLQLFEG
T1 chain 3: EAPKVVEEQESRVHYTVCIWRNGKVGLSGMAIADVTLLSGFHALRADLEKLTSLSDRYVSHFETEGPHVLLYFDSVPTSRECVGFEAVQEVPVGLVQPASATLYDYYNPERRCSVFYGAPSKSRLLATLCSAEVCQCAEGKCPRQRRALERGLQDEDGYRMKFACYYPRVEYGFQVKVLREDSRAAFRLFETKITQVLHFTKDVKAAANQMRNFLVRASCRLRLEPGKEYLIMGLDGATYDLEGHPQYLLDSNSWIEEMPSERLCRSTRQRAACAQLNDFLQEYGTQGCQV
Assay: cell-based or functional assay

B1: Const. No. 1: HSA-GGSSGG-hCFI; F559W (enzyme)
chain: [not shown - about 600 residues]GGSSGGKVTYTSQEDLVEKKCLAKKYTHLSCDKVFCQPWQRCIEGTCVCKLPYQCPKNGTAVCATNRRSFPTYCQQKSLECLHPGTKFLNNGTCTAEGKFSVSLKHGNTDSEGIVEVKLVDQDKTMFICKSSWSMREANVACLDLGFQQGADTQRRFKLSDLSINSTECLHVHCRGLETSLAECTFTKRRTMGYQDFADVVCYTQKADSPMDDFFQCVNGKYISQMKACDGINDCGDQSDELCCKACQGKGFHCKSGVCIPSQYQCNGEVDCITGEDEVGCAGFASVTQEETEILTADMDAERRRIKSLLPKLSCGVKNRMHIRRKRIVGGKRAQLGDLPWQVAIKDASGITCGGIYIGGCWILTAAHCLRASKTHRYQIWTTVVDWIHPDLKRIVIEYVDRIIFHENYNAGTYQNDIALIEMKKDGNKKDCELPRSIPACVPWSPYLFQPNDTCIVSGWGREKDNERVFSLQWGEVKLISNCSKFYGNRFYEKEMECAGTYDGSIDACKGDSGGPLVCMDANNVTYVWGVVSWGENCGKPEFPGVYTKVANYFDWISYHVGRPWISQYNV
C4c EC50: 183 nM

B2: Const. No. 26: HSA-GGSSGG-hCFI; E401K (enzyme)
chain: [not shown - about 600 residues]GGSSGGKVTYTSQEDLVEKKCLAKKYTHLSCDKVFCQPWQRCIEGTCVCKLPYQCPKNGTAVCATNRRSFPTYCQQKSLECLHPGTKFLNNGTCTAEGKFSVSLKHGNTDSEGIVEVKLVDQDKTMFICKSSWSMREANVACLDLGFQQGADTQRRFKLSDLSINSTECLHVHCRGLETSLAECTFTKRRTMGYQDFADVVCYTQKADSPMDDFFQCVNGKYISQMKACDGINDCGDQSDELCCKACQGKGFHCKSGVCIPSQYQCNGEVDCITGEDEVGCAGFASVTQEETEILTADMDAERRRIKSLLPKLSCGVKNRMHIRRKRIVGGKRAQLGDLPWQVAIKDASGITCGGIYIGGCWILTAAHCLRASKTHRYQIWTTVVDWIHPDLKRIVIEYVDRIIFHKNYNAGTYQNDIALIEMKKDGNKKDCELPRSIPACVPWSPYLFQPNDTCIVSGWGREKDNERVFSLQWGEVKLISNCSKFYGNRFYEKEMECAGTYDGSIDACKGDSGGPLVCMDANNVTYVWGVVSWGENCGKPEFPGVYTKVANYFDWISYHVGRPFISQYNV
C4c EC50: 99.6 nM

B3: Const. No. 2: HSA-GGSSGG-hCFI; F559H (enzyme)
chain: [not shown - about 600 residues]GGSSGGKVTYTSQEDLVEKKCLAKKYTHLSCDKVFCQPWQRCIEGTCVCKLPYQCPKNGTAVCATNRRSFPTYCQQKSLECLHPGTKFLNNGTCTAEGKFSVSLKHGNTDSEGIVEVKLVDQDKTMFICKSSWSMREANVACLDLGFQQGADTQRRFKLSDLSINSTECLHVHCRGLETSLAECTFTKRRTMGYQDFADVVCYTQKADSPMDDFFQCVNGKYISQMKACDGINDCGDQSDELCCKACQGKGFHCKSGVCIPSQYQCNGEVDCITGEDEVGCAGFASVTQEETEILTADMDAERRRIKSLLPKLSCGVKNRMHIRRKRIVGGKRAQLGDLPWQVAIKDASGITCGGIYIGGCWILTAAHCLRASKTHRYQIWTTVVDWIHPDLKRIVIEYVDRIIFHENYNAGTYQNDIALIEMKKDGNKKDCELPRSIPACVPWSPYLFQPNDTCIVSGWGREKDNERVFSLQWGEVKLISNCSKFYGNRFYEKEMECAGTYDGSIDACKGDSGGPLVCMDANNVTYVWGVVSWGENCGKPEFPGVYTKVANYFDWISYHVGRPHISQYNV
C4c EC50: 244 nM

B4: Const. No. 23: HSA-GGSSGG-hCFI; R62E (enzyme)
chain: [not shown - about 600 residues]GGSSGGKVTYTSQEDLVEKKCLAKKYTHLSCDKVFCQPWQRCIEGTCVCKLPYQCPKNGTAVCATNRESFPTYCQQKSLECLHPGTKFLNNGTCTAEGKFSVSLKHGNTDSEGIVEVKLVDQDKTMFICKSSWSMREANVACLDLGFQQGADTQRRFKLSDLSINSTECLHVHCRGLETSLAECTFTKRRTMGYQDFADVVCYTQKADSPMDDFFQCVNGKYISQMKACDGINDCGDQSDELCCKACQGKGFHCKSGVCIPSQYQCNGEVDCITGEDEVGCAGFASVTQEETEILTADMDAERRRIKSLLPKLSCGVKNRMHIRRKRIVGGKRAQLGDLPWQVAIKDASGITCGGIYIGGCWILTAAHCLRASKTHRYQIWTTVVDWIHPDLKRIVIEYVDRIIFHENYNAGTYQNDIALIEMKKDGNKKDCELPRSIPACVPWSPYLFQPNDTCIVSGWGREKDNERVFSLQWGEVKLISNCSKFYGNRFYEKEMECAGTYDGSIDACKGDSGGPLVCMDANNVTYVWGVVSWGENCGKPEFPGVYTKVANYFDWISYHVGRPFISQYNV
C4c EC50: 1210 nM

The next lines start with the values.

C4c EC50: 47 nM
B5: Const. No. 27: HSA-GGSSGG-hCFI; E401R (enzyme)
chain: [not shown - about 600 residues]GGSSGGKVTYTSQEDLVEKKCLAKKYTHLSCDKVFCQPWQRCIEGTCVCKLPYQCPKNGTAVCATNRRSFPTYCQQKSLECLHPGTKFLNNGTCTAEGKFSVSLKHGNTDSEGIVEVKLVDQDKTMFICKSSWSMREANVACLDLGFQQGADTQRRFKLSDLSINSTECLHVHCRGLETSLAECTFTKRRTMGYQDFADVVCYTQKADSPMDDFFQCVNGKYISQMKACDGINDCGDQSDELCCKACQGKGFHCKSGVCIPSQYQCNGEVDCITGEDEVGCAGFASVTQEETEILTADMDAERRRIKSLLPKLSCGVKNRMHIRRKRIVGGKRAQLGDLPWQVAIKDASGITCGGIYIGGCWILTAAHCLRASKTHRYQIWTTVVDWIHPDLKRIVIEYVDRIIFHRNYNAGTYQNDIALIEMKKDGNKKDCELPRSIPACVPWSPYLFQPNDTCIVSGWGREKDNERVFSLQWGEVKLISNCSKFYGNRFYEKEMECAGTYDGSIDACKGDSGGPLVCMDANNVTYVWGVVSWGENCGKPEFPGVYTKVANYFDWISYHVGRPFISQYNV

C4c EC50: 219 nM
B6: Const. No. 38: HSA-GGSSGG-hCFI; N52A (enzyme)
chain: [not shown - about 600 residues]GGSSGGKVTYTSQEDLVEKKCLAKKYTHLSCDKVFCQPWQRCIEGTCVCKLPYQCPKAGTAVCATNRRSFPTYCQQKSLECLHPGTKFLNNGTCTAEGKFSVSLKHGNTDSEGIVEVKLVDQDKTMFICKSSWSMREANVACLDLGFQQGADTQRRFKLSDLSINSTECLHVHCRGLETSLAECTFTKRRTMGYQDFADVVCYTQKADSPMDDFFQCVNGKYISQMKACDGINDCGDQSDELCCKACQGKGFHCKSGVCIPSQYQCNGEVDCITGEDEVGCAGFASVTQEETEILTADMDAERRRIKSLLPKLSCGVKNRMHIRRKRIVGGKRAQLGDLPWQVAIKDASGITCGGIYIGGCWILTAAHCLRASKTHRYQIWTTVVDWIHPDLKRIVIEYVDRIIFHENYNAGTYQNDIALIEMKKDGNKKDCELPRSIPACVPWSPYLFQPNDTCIVSGWGREKDNERVFSLQWGEVKLISNCSKFYGNRFYEKEMECAGTYDGSIDACKGDSGGPLVCMDANNVTYVWGVVSWGENCGKPEFPGVYTKVANYFDWISYHVGRPFISQYNV
